The record followed here is the GPR68 mutational scans of Howard et al. (2025).

The chains are these.
B1: GPR68, Q15743 (parent)
chain: MGNITADNSSMSCTIDHTIHQTLAPVVYVTVLVVGFPANCLSLYFGYLQIKARNELGVYLCNLTVADLFYICSLPFWLQYVLQHDNWSHGDLSCQVCGILLYENIYISVGFLCCISVDRYLAVAHPFRFHQFRTLKAAVGVSVVIWAKELLTSIYFLMHEEVIEDENQHRVCFEHYPIQAWQRAINYYRFLVGFLFPICLLLASYQGILRAVRRSHGTQKSRKDQIQRLVLSTVVIFLACFLPYHVLLLVRSVWEASCDFAKGVFNAYHFSLLLTSFNCVADPVLYCFVSETTHRDLARLRGACLAFLTCSRTGRAREAYPLGAPEASGKSGAQGEEPELLTKLHPAFQTPNSPGSGGFPTGRLA

Scores with a large standard error are left out. Not listed are two conditions whose scores span a narrow range. In variant names, del marks residues removed and ins residues inserted between the two positions. For some assays here: How much ogerin was present is not stated here.

Data set [1] covers variants of B1. The experiment in a line: cAMP reporter score (Enrich2 score, wild type = 0); higher = more signal; HEK293T, FACS bins.
The variants in data set [2] derive from B1. The experiment in a line: surface expression score (Enrich2 score, wild type = 0); higher = more signal; HEK293T, FACS bins.

Regarding MGNITADNSSMSCTIDHTIHQTLAPVVYVTVLVVGFPANCLSLYFGYLQIKARNELGVYLCNLTVADLFYICSLPFWLQYVLQHDNWSHGDLSCQVCGILLYENIYISVGFLCCISVDRYLAVAHPFRFHQFRTLKAAVGVSVVIWAKELLTSIYFLMHEEVIEDENQHRVCFEHYPIQAWQRAINYYRFLVGFLFPICLLLASYQGILRAVRRSHGTQKSRKDQIQRLVLSTVVIFLACFLPYHVLLLVRSVWEASCDFAKGVFNAYHFSLLLTSFNCVADPVLYCFVSETTHRDLARLRGACLAFLTCSRTGRAREAYPLGAPEASGKSGAQGEEPELLTKLHPAFQTPNSPGSGGFPTGRLC [A365C], the cAMP reporter score came out at 0.88 in data set [1] (pH 5.5); 1.85 in data set [1] (pH 6); 1.57 in data set [1] (pH 6, modulator: ogerin); 1.03 in data set [1] (pH 6.5, modulator: ogerin). In data set [2], the surface expression score was -0.219.

As for MGNITADNSSMSCTIDHTIHQTLAPVVYVTVLVVGFPANCLSLYFGYLQIKARNELGVYLCNLTVADLFYICSLPFWLQYVLQHDNWSHGDLSCQVCGILLYENIYISVGFLCCISVDRYLAVAHPFRFHQFRTLKAAVGVSVVIWAKELLTSIYFLMHEEVIEDENQHRVCFEHYPIQAWQRAINYYRFLVGFLFPICLLLASYQGILRAVRRSHGTQKSRKDQIQRLVLSTVVIFLACFLPYHVLLLVRSVWEASCDFAKGVFNAYHFSLLLTSFNCVADPVLYCFVSETTHRDLARLRGACLAFLTCSRTGRAREAYPLGAPEASGKSGAQGEEPELLTKLHPAFQTPNSPGSGGFPTGRLD [A365D], the cAMP reporter score in data set [1] (pH 5.5) was 0.375; in data set [1] (pH 6), 1.22; in data set [1] (pH 6, modulator: ogerin) it was -0.29; in data set [1] (pH 6.5, modulator: ogerin), -0.088. Besides, the surface expression score in data set [2] is 0.702.

In the case of MGNITADNSSMSCTIDHTIHQTLAPVVYVTVLVVGFPANCLSLYFGYLQIKARNELGVYLCNLTVADLFYICSLPFWLQYVLQHDNWSHGDLSCQVCGILLYENIYISVGFLCCISVDRYLAVAHPFRFHQFRTLKAAVGVSVVIWAKELLTSIYFLMHEEVIEDENQHRVCFEHYPIQAWQRAINYYRFLVGFLFPICLLLASYQGILRAVRRSHGTQKSRKDQIQRLVLSTVVIFLACFLPYHVLLLVRSVWEASCDFAKGVFNAYHFSLLLTSFNCVADPVLYCFVSETTHRDLARLRGACLAFLTCSRTGRAREAYPLGAPEASGKSGAQGEEPELLTKLHPAFQTPNSPGSGGFPTGRLE [A365E], the cAMP reporter score in data set [1] (pH 5.5) is -0.873; in data set [1] (pH 6), -0.162; in data set [1] (pH 6, modulator: ogerin), -0.957; in data set [1] (pH 6.5, modulator: ogerin), -0.64. Moreover, in data set [2], the surface expression score was -1.27.

On to MGNITADNSSMSCTIDHTIHQTLAPVVYVTVLVVGFPANCLSLYFGYLQIKARNELGVYLCNLTVADLFYICSLPFWLQYVLQHDNWSHGDLSCQVCGILLYENIYISVGFLCCISVDRYLAVAHPFRFHQFRTLKAAVGVSVVIWAKELLTSIYFLMHEEVIEDENQHRVCFEHYPIQAWQRAINYYRFLVGFLFPICLLLASYQGILRAVRRSHGTQKSRKDQIQRLVLSTVVIFLACFLPYHVLLLVRSVWEASCDFAKGVFNAYHFSLLLTSFNCVADPVLYCFVSETTHRDLARLRGACLAFLTCSRTGRAREAYPLGAPEASGKSGAQGEEPELLTKLHPAFQTPNSPGSGGFPTGRYA [L364Y], for which the cAMP reporter score in data set [1] (pH 5.5) was 0.038; in data set [1] (pH 6), -0.47; in data set [1] (pH 6, modulator: ogerin) it was -0.3; in data set [1] (pH 6.5, modulator: ogerin) it was 0.141. Moreover, in data set [2], the surface expression score was determined as 0.208.
